Test results reported in PubChem BioAssay AID624296 (National Center for Advancing Translational Sciences (NCATS), 2012).
Out of some 350,000 compounds screened, about 9,900 (2.8%) were called active. The inconclusive results got no clear call from the source; some entries with a clear call stand among them for comparison. Calls follow the shape of the dose curve; as a rule, active = well fitted activation curve with a large enough effect; inconclusive = small, poorly fitted or top-dose-only effect; inactive = no such curve, though single readings can be large or run the other way. No potency is given beside an inconclusive call; the fits are too rough.

Assay: A quantitative high throughput screen for small molecules that induce DNA re-replication in MCF 10a normal breast cells. Also: nearly all actives have a fitted effect of over 50% in size. As to activity, positive = re-replication: % of control where 0% means no effect.
Conditions: MCF 10A DNA re-replication, Hoechst nuclear intensity, 48 h; activity, positive = re-replication: at 46.1 µM (top of the series)
Potency is read from the fitted curve at half-maximal effect; tags tell the direction and shape of the fitted curve.

Compound	Potency	activity, positive = re-replication
COC(=O)C1=C(c2cccc(OCc3ccccc3)c2)C[C@@H]2CC[C@H]1N2C(=O)NCCOc1ccccc1	active: 13 µM	–
Cc1cccc(N2CCN(C(=O)C34CC5CC(CC(C5)C3)C4)CC2)c1C	inconclusive [activator, single point]	–
CC(=NCCN(C)C)c1c(O)n(Cc2ccccc2)c(=O)[nH]c1=O	–	inactive: -2.74%
O=c1c2ccccc2nc(-c2ccccc2)n1-c1nccs1	inconclusive [activator, partial curve, poor fit]	–
Cc1ccc2c(c1)CC1(CN2C)C(=O)NC(=O)N(C(C)C)C1=O (stereo unspecified)	inconclusive [activator, full curve, poor fit]	–
CC1=CC2OC3CC4OC(=O)C=CC=CC(=O)OCCC(C)C(O)C(=O)OCC2(CC1)C4(C)C31CO1 (stereo unspecified)	–	inactive: 12%
COC(=O)C1=C(c2ccc(OC)c(OC)c2)C[C@@H]2CC[C@H]1N2C(=O)NCCOc1ccccc1	inconclusive [activator, full curve, poor fit]	–
CN1C(=O)C(=Cc2coc3ccccc3c2=O)C(=O)N(C)C1=O	inconclusive [activator, partial curve, poor fit]	–
O=c1c(C=NCCN2CCNCC2)c(O)n(C2CCCCC2)c(=O)n1C1CCCCC1	inconclusive [activator, partial curve, poor fit]	–
O=C(Nc1ccc(Br)cc1)N1C[C@H]2C[C@@H](C1)c1cccc(=O)n1C2	inconclusive [activator, full curve, poor fit]	–
COc1ccc(OCC(=O)N2CCN(C3CCC(c4ccccc4)CC3)CC2)cc1 (stereo unspecified)	inconclusive [activator, partial curve, poor fit]	–
CCOc1cc2c(cc1OCC)-n1cccc1C(c1ccc(F)cc1)NC2 (stereo unspecified)	inconclusive [activator, partial curve, poor fit]	–
CCCCCn1c(N)c(C(=O)NCCN2CCOCC2)c2nc3ccccc3nc21	inconclusive [activator, partial curve, poor fit]	–
O=C1CN=C(c2ccccc2)c2oc3ccc(Br)cc3c2N1	–	inactive: 9.43%
O=C(O)c1ccccc1-c1ccc(C=C2C(=O)N(c3ccccc3)C(=S)N(c3ccccc3)C2=O)o1	inconclusive [activator, single point]	–
COCCNC(=O)Cn1cc(/C=C2\C(=O)NC(=O)N(c3cccc(C)c3C)C2=O)c2ccccc21	inconclusive [activator, single point]	–
CCOC(=O)c1c(-n2c(C)cc(/C=C3/C(=O)NC(=O)N(CC)C3=O)c2C)sc2c1CCCC2	–	inactive: 10.4%
O=C(N/N=C/c1c(O)n(-c2ccccc2)c(=O)[nH]c1=O)c1ccncc1	–	inactive: 15.8%
Cc1cccc(-n2c(O)c(C=Nc3ccc(Br)cn3)c(=O)[nH]c2=O)c1	inconclusive [activator, single point]	–
CC(C)(C)NC(=O)C1CC2CCCCC2CN1 (stereo unspecified)	–	inactive: -12.3%
COCCCNC(=O)c1c(NC(=O)c2ccccc2Cl)n(Cc2ccccc2)c2nc3ccccc3nc12	inconclusive [activator, full curve]	–
COC(=O)C1=C(c2ccccc2OCc2ccccc2)C[C@@H]2CC[C@H]1N2C(=O)NCc1ccccc1	inconclusive [activator, full curve, poor fit]	–

Compound	Potency	activity, positive = re-replication
Cc1nn(-c2ccccc2)c(Cl)c1/C=N\NC(=O)c1cnccn1	inconclusive [activator, single point]	–
CCC(C)N1C(=O)NC(=O)C2(Cc3c(ccc4ccccc34)N(C)C2)C1=O (stereo unspecified)	inconclusive [activator, partial curve, poor fit]	–
COC(=O)C1=C(c2ccc(-c3ccccc3)c(F)c2)C[C@@H]2CC[C@H]1N2C(=O)N1CCCCC1	inconclusive [activator, single point]	–
CN1CCN(CCOC2c3ccccc3CSc3ccc(Cl)cc32)CC1 (stereo unspecified)	active: 23.1 µM	–
CN1C(=O)C(=Cc2ccccc2OCCOc2ccc([N+](=O)[O-])cc2)C(=O)N(C)C1=O	inconclusive [activator, single point]	–
CCOC(=O)C1CCCN(c2ccc([N+](=O)[O-])c3nonc23)C1 (stereo unspecified)	–	inactive: 13.3%
CC(C)N(Cc1ccco1)/N=C/c1c(O)n(Cc2ccccc2)c(=O)[nH]c1=O	inconclusive [activator, partial curve, poor fit]	–
CCc1ccccc1NC(=O)CN1CCN(C(=O)COc2ccccc2C#N)CC1	inconclusive [activator, full curve, poor fit]	–
CN(C)C(=O)Oc1ccc(OC(=O)c2ccccc2)cc1	–	inactive: 10.7%
O=C(c1ccccc1)N1CCC2(CC1)OCCO2	inconclusive [activator, partial curve, poor fit]	–
CCCC(=O)OCC[N+](C)(C)C	inactive	–
CCN(CC)C(=O)Cn1cc(/C=C2\C(=O)NC(=O)N(c3ccccc3F)C2=O)c2ccccc21	inconclusive [activator, single point]	–
CCn1nc(-c2cccs2)nc2c(=O)n(C)c(=O)nc1-2	active: 0.731 µM	–
CCOCCCNC(=O)C1c2cc(OC)c(OC)cc2C(=O)N2CCCCC12 (stereo unspecified)	–	inactive: 1.34%
NP(=O)(Oc1ccccc1Cl)Oc1ccccc1Cl	active: 0.651 µM	–
O=C(CCl)c1ccc(Oc2ccc(C(=O)CCl)cc2)cc1	active: 26.6 µM	–
CCOc1cc(CNCCc2c[nH]c3ccccc23)cc(Cl)c1OCC	–	inactive: 31%
COc1cc2c(cc1OC)CN(c1ccc([N+](=O)[O-])c(C(F)(F)F)c1)CC2	inconclusive [activator, partial curve, poor fit]	–
CCCCn1c(NS(=O)(=O)c2ccccc2)c(C(=O)OCC)c2nc3ccccc3nc21	active: 6.51 µM	–
COc1ccc(-n2c(SCCN(C)C)nc3ccccc3c2=O)cc1	–	inactive: -13.4%
O=c1c2ccccc2nc(/C=C/c2ccc(O)cc2)n1-c1cccc(O)c1	active: 23.1 µM	–
COC1C(OC(=O)c2ccc(C)[nH]2)C(O)C(Oc2ccc3c(O)c(NC(=O)c4ccc(O)c(CC=C(C)C)c4)c(=O)oc3c2Cl)OC1(C)C (stereo unspecified)	inconclusive [activator, single point]	–

Compound	Potency	activity, positive = re-replication
Cn1cccc1C1CCCN1CC(=O)Nc1ccc(C#N)c(Cl)c1 (stereo unspecified)	inconclusive [activator, single point]	–
COc1cc(C(=O)O)cc(OC)c1OC	inconclusive [activator, full curve, poor fit]	–
COc1cccc(C(=O)N2CCC3(CC2)OCCO3)c1	–	inactive: -1.14%
CNC[C@H](O)c1ccc(O)cc1	–	inactive: -10% [at 20.6 µM]
COc1ccccc1N1CCN(Cc2ccccc2Cl)CC1	inconclusive [activator, partial curve, poor fit]	–
CCOC(=O)c1c(/N=C/c2c(O)n(-c3cccc(C)c3)c(=O)[nH]c2=O)sc2c1CCCC2	inconclusive [activator, single point]	–
Nc1c(C(=O)NCc2ccco2)c2nc3ccccc3nc2n1Cc1ccccc1	inconclusive [activator, full curve, poor fit]	–
Oc1ccc(C2NCc3ccccc3-n3cccc32)cc1Cl (stereo unspecified)	inconclusive [activator, single point]	–
Cc1cccc(-n2c(C)nc3cc(C(=O)N4CCC5(CC4)OCCO5)ccc32)c1	inconclusive [activator, single point]	–
N#Cc1ccc(C(=O)N2Cc3cnnn3-c3ccccc3C2C#N)cc1 (stereo unspecified)	inconclusive [activator, partial curve, poor fit]	–
CCOc1cccc(CNCCc2c(C)[nH]c3ccc(OC(F)(F)F)cc23)c1O	inconclusive [activator, partial curve, poor fit]	–
O=C1NC(=O)C(=Cc2cc([N+](=O)[O-])ccc2N2CCCCC2)C(=O)N1	inconclusive [activator, partial curve, poor fit]	–
O=P(C(c1ccc2c(c1)OCO2)N1CCOCC1)(N1CCOCC1)N1CCOCC1 (stereo unspecified)	inconclusive [activator, single point]	–
CCC(C(=O)Nc1ccc(Cl)cc1)N1CCCC1=O (stereo unspecified)	–	inactive: -2.95%
CCCCCn1c(=O)c(C(=O)Nc2ccccc2N)c(O)c2ccccc21	–	inactive: 16.7%
COc1ccc(N2C(=O)/C(=C/c3ccc(N(C)C)o3)C(=O)NC2=S)cc1	inconclusive [activator, single point]	–
C[C@]12CCC3=C4CCC(=O)C=C4CC[C@H]3C1CC[C@@H]2O (stereo partly specified)	–	inactive: 14.7%
CCOC(=O)C(O)(c1ccc(NC(=S)NC(=O)c2ccc(Cl)cc2Cl)c(C)c1)C(F)(F)F (stereo unspecified)	inconclusive [activator, partial curve, poor fit]	–
Cn1cc(C(=O)OCC(=O)NC2CCCC2)c2ccccc21	–	inactive: -2.64%
CCN(CC)CC(O)c1ccc(C2CCCC2)cc1 (stereo unspecified)	inconclusive [activator, partial curve, poor fit]	–
FC(F)(F)c1nc(N2CCN(c3ccccc3)CC2)nc2c1CCCCC2	inconclusive [activator, partial curve, poor fit]	–
CC1=CC(C)CC(C)OC(=O)CC(c2ccc(O)cc2)NC(=O)C(Cc2c(Br)[nH]c3ccccc23)N(C)C(=O)C(C)NC(=O)C(C)C1 (stereo unspecified)	–	inconclusive: 86.8% [activator]
